Test results: the RNAGym collection of RNA variant scans (doi:10.7554/elife.90254)
Read counts are not given, so values of variants with three or more changes are uncertain.

B1: OR4K15 (parent)
chain: GUUAACGGUCAUAGGCCAUGGAAACUAGGAGCACCAUUUCGCUGCCAGUGAAGAAAUGAACAAAGAAAAUCUGGGCCAGGCAGGCAUCAAAAGAAAUAGUCUUGCGCUCAACCAGAAAGUCUGUAAUCAUUUUAAGGGUA

Variants of: B1
Experiment: self-cleavage, relative activity (ratio to wild type); higher = more cleavage; in vitro, sequencing; the parent is a self-cleaving ribozyme

Variant	self-cleavage
A27G A92G A126G	1.16
A52U A63G A68G A86G A89G A91G	0.46
A36G A67U U122A A126G	1.63
A59G A62G A110U	1.37
A63G A69G A91U A116G A117G	0.18
A22G U43C A91G	0.73
A69U U87C U108C	0
U3C A55U A59C A89G U100C A114U	0.05
U37C U49C A54G A86G	1.28
U12C A18G A78U	0.31
A18G A51U A96G	0.78
A30G C71U U122G	0.75
U9A A62G A96G	1.12
A4G A47U A56G U130C A140G	1.49
A23G A67G U108C U120C	0.01
U3A A86U U87C U102C	0.97
A11G A78G A117G U139C	0.13
G7U A96G U124C	1.54
A18U A67G A82U A96G	0.18
A86G A92G A94G	0.99
A30U A96G U122A	1.9
A64G A95G A96U U133C	1.24
A13G A60U A67G	0.65
A59U A62C A118G A126G	0.76

Variant	self-cleavage
U9C A56G A95G U132C	1.93
A27G U39C U49G U70C G75A A95G	0.08
G58U A92G U97C	0.94
A78U A95G U127A	0.9
U2C U26A A27G U37C A51U A92G U100C U103A	0.87
A36U U38C U49A U120C	0.46
U49A U132A A135G	1.04
A11G C34U A51C G106A A135G	0.01
A33G A60G U72A G115A U132A	0.01
U37C A68C A95G	2.52
G1U A36U A96G	2.12
U9C A68U A91G A117G A118G U132A	0.5
G7A A118G U122C	0.6
U39A A62G A66U	1.33
G15A A23G A96G	0.78
U38C A52G U102C U132G	2.26
A55G G79U A92G U130C	0.05
A56G A59G A68C U72C	0.04
A22G A63G U122C	1.23
A66U G75C U97A A110G	0.02
A5G A67U A125U	1.41
A64G A67G U120C	1.48
A22G A23G U132C	0.74
U19C A67C A111G	0.04

Variant	self-cleavage
A13U A59U A66G A140U	1.24
A47G A59G A89C U122C	0.63
A11G U37C A91G	0.68
A23G U43C A59G A116G U127C	0.57
A5G A90G A111G	0.1
A5G A18U C42A A94G	0.91
G7U A23C A78G C85U	0.38
A82U A110C A116G	0.05
U19C A22U A54G	1.86
U9C A23G A56G	1.63
U2C A18G A33G	1.57
U2C A24G U37C A69G	1.62
A18G C34U A89G	1.19
A60U A62U U127C	0.44
A4G A67G A92G A118G	0.61
A4G A66G U108C A116G	0.03
A36G A96G C109U A134G A140U	0.43
A78U A91G C105A	0.01
A98U U102G A111G	0.01
U12A A27G A33G A67G U127C	0.63
U49C A55G A59G C112A	0.04
A18G A51G A135G	1.2
A33C A47G A126G	0.88
A18U U70C A98G	0.44

Variant	self-cleavage
U37C A64G A92G U122C	0.82
U72C A96G G119A	0.3
A11G U97C A118G U120C A135U	0.06
A63G A94G U102C	1.51
A63G A118U A129U	0.66
A36U A59G U130C	1.68
U9C A33U A110G	0.25
A22U A91G G115A U122C	0.03
A22G A92G U102A	1.08
U9C A18G U43C A51G A52G U87C C105U	0.12
A5G A47G A60G	0.64
A24G A55G U122C A140G	1.27
A18G U37C U130C	1.19
U72C A91G A94G	0.13
A23G A82G U127A	1.09
A11G A22G U37C A47G A63G	0.41
U49C A94G A96G A98U U127C	2.08
A36G A82U U108C	0.02
A52G A55G A56G A63G A82G G84A U103A U122C A125G	0.14
A78G U122A A126G A129G U130C	0
A18G C40A U49C A63G U132C	1.12
A52G U120C U132C	0.38
A23G A33U U70C U97A A110G U130A	0.05
A22G A33G U127G U139C	1.61

Variant	self-cleavage
A82G U100C A129G	0.74
C42A A54G A63C	1.24
A22G A54G A94C U130C	0.38
A67U U100C U130C	2.91
A55G A60G A66G U97C	0.96
U43C A47U A89G U124C	0.23
G44A U70C A134G	0.27
C6U A27G A51G A94G U100C	0.89
G7A A11U U37C C105U	0.19
U9A A68G U87C	1.88
A47G A68G C77U A95G C113U	0.08
U19C A91G A95G	1.64
U26C G58U A94G A95G	1.4
U12C G28U U39C A51C U130C	0.7
U19C A114U U132C	0.05
U12C A23G A66G A118G	0.63
A47U A64G U132C	0.41
A18G U39C A66C U72C	0.24
A51G A90G A117U	1.04
A5G A47G A66G U103A	0.44
A62C A94G A126U	1.5
A22G A33G U100C	1.41
A5G A36U U49C A54G A68G U100C	1.13
A13G A51G A68G A86U A135G	0.76

Variant	self-cleavage
A66G A89G U132C	1.3
U9C A92G U108C C112U	0
A30G U37C U38C A82G	0.42
A18U C35U A86G A116G	0.53
C16U A23G U87C	1.05
C34U U39A A82G A96G	0.36
A69G U124C A135U	0.67
A11G G14A A64G	0.76
A82U A94G A116G A134G	0.04
A59G A86G A89G U127C	0.7
U26C A91G A96G	1
U9A A60G A69G	0.61
A11U U72A A86G C107A	0.02
A22G U57C A114G	0.2
U70C A82U U131A U132C	0.19
A18U A52G A92G	1.21
A110U A126U U127C	0.5
A23G C101A U131C	0.09
U37C A62G U102A A110C U124C G137U	0.04
A66G A69G U122C U124C	1.24
A60G A86C A126C A129G	0.61
U38A A52G A67U U108A	0.03
U9C A51G A63G A116U	0.69
U103C A110G U131C U139A	0.11

Variant	self-cleavage
A5G A62G G123A	0.95
C46A A111G A117G	0.01
A51G A98U A118G U131C	2.17
U38C A66G A67G A69U U122C	1.56
A90U A96G U102C	2.75
U12G G14U A22G A66G U122C U131C	0.84
A22G U37C G41A C42A A51G A64U	0.59
A24C A62G A68G	1.27
A23G A33C U43C	2.71
G29U U57C U108A	0.01
A54G U72C A114U	0.03
U2C A13U A69G A96G A135G	1.15
G7U A90G A92G U124C	0.76
A22G A94G U102A	1.59
A30G G41U A56G U57C A60G A63U	1.18
A96G U108C U124A	0.01
A30U A47G A110G A116G U132C A135G	0.04
U3C U37C U132C	1.35
A23G A47G A55G	0.89
U2C A24G A110G U127C	0.1
A82G A96G A117G U131C	0.1
U12C U49C U122C	0.74
G15A G75A A89U	0.11
